PubChem BioAssay AID1508624 (National Center for Advancing Translational Sciences (NCATS), 2021)
Out of some 48,000 compounds screened, about 120 (0.25%) were called active. Not shown: some 4% with an inconclusive outcome. Calls follow the shape of the dose curve; as a rule, active = well fitted activation curve with a large enough effect; inconclusive = small, poorly fitted or top-dose-only effect, or another doubt; inactive = no such curve, though single readings can be large or run the other way. Some of the results follow.

assay: Primary qHTS for Identification of Small Molecule Activators of Huntingtin-Antisense Promoter Activity; conditions: HEK293 HTT-AS promoter firefly luciferase reporter, 24 h; series mostly up to 57.5 µM; activity change, positive = activation: at the top concentration; also: nearly all actives have a fitted effect of over 55% in size
In short: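 Luminescence was read after Dual-Glo reagent and a 10 min room-temperature incubation. Values were normalized to vehicle (0% activity) and zero RLU (-100% activity). Reporter HEK293 cells had been exposed to compounds (up to 57.5 uM final) for 24 h.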

| SMILES | activity change, positive = activation |
| --- | --- |
| COc1ccc(C2=CC(c3ccc(N(C)C)cc3)n3nnnc3N2)cc1 (stereo unspecified) | inactive: 19.9% |
| Cc1c(CNC2CCCCCC2)c(C(=O)O)c(C)n1Cc1c(F)cccc1Cl | inactive: -15.2% |
| Cc1oc2ncn(CC(C)C)c(=O)c2c1C(=O)N1CCN(c2ccccc2F)CC1 | inactive: -1.33% |
| CCc1ccc(NC(=O)C2(c3cccs3)CCOCC2)cc1 | inactive: -15.5% |
| Cc1cc(C)c(NC(=O)CN(c2ccccc2)S(=O)(=O)N(C)C)c(C)c1 | inactive: -20.5% |
| O=C(Nc1ccc2oc(-c3ccc4ccccc4c3)nc2c1)c1cccc(Cl)c1Cl | inactive: 20.2% |
| CSc1ccc(CCNC(=O)CN2C(=O)COc3ccc(S(=O)(=O)N4CCCC4)cc32)cc1 | inactive: -32.8% |
| CCOc1ccc(NC(=O)c2cnn3c2NC(c2ccccc2)=CC3c2cccc(OC)c2OC)cc1 (stereo unspecified) | inactive: -31.3% |
| Clc1ccc(-c2nnn3c2nc(N2CCCCC2)c2ccccc23)cc1 | inactive: -1.52% |
| Cc1ccc(NC(=O)N(Cc2c[nH]c3ccccc23)C2CCCCCC2)cc1C | inactive: 6.56% |
| O=c1n(Cc2ccc([N+](=O)[O-])cc2)c2ccccc2c2nc(-c3ccccc3)nn12 | inactive: -5.56% |
| Cc1c(NC(=O)Nc2ccccc2C(F)(F)F)c(=O)n(-c2ccccc2)n1C | inactive: 0.905% |
| CCOc1ccc(C2=C(C(C)=O)Sc3nnc(C)n3N2C(C)=O)cc1 | inactive: -10.1% |
| Cn1c(=O)n(C)c2cc(CNCc3ccc(F)cc3)ccc21 | inactive: -2.97% |
| Cc1ccc(C(=O)N2CCc3cc(CNC(=O)c4ccccc4F)ccc32)cc1 | inactive: -28.3% |
| CCOc1ccc(NC(=O)c2cccc3c(=O)c4c([nH]c23)CCCC4)cc1 | inactive: -8.45% |
| Cc1cc(C)cc(-n2c(SCC(=O)Nc3ccccc3F)nc3c(oc4ccccc43)c2=O)c1 | inactive: -23% |
| O=C(CS(=O)(=O)c1ccc(Cl)cc1)Nc1nc2ccc(Br)cc2s1 | inactive: -13.4% |
| COc1ccc(CCNC(=O)CCN2N=C(c3ccccc3)CCC2=O)cc1OC | inactive: -7.76% |
| COc1cc(Cl)c(C)cc1NC(=O)Cn1cnc2sc(C)c(S(=O)(=O)N3CCCCC3)c2c1=O | inactive: -25% |
| Cc1noc(NS(=O)(=O)c2ccc(NC(=O)COc3ccccc3Br)cc2)c1C | inactive: -26.7% |
| CCOc1ccccc1NC(=O)Nc1ccccc1OCc1cc(=O)n2ccccc2n1 | inactive: 0.382% |
| Cc1ccc(CCNC(=O)c2ccc(CS(=O)(=O)Cc3ccc(Cl)cc3)o2)cc1 | inactive: -12.6% |

| SMILES | activity change, positive = activation |
| --- | --- |
| CN(CC(=O)NCc1ccc(Cl)cc1)S(=O)(=O)c1ccc2c(c1)c(=O)n(C)c(=O)n2C | inactive: -14.1% |
| CCOC(=O)c1scc(-c2ccc(C)cc2)c1S(=O)(=O)Nc1cc(C)ccc1C | inactive: -34.2% |
| CCOC(=O)C1=C(C)NC2=C(C(=O)CC(C)(C)C2)C1c1ccc(-c2ccccc2)cc1 (stereo unspecified) | inactive: -29.3% |
| COc1cc(/C=C/C(=O)O[C@H]2CC[C@]34C[C@]35CC[C@]3(C)[C@@H]([C@H](C)CCC=C(C)C)CC[C@@]3(C)[C@@H]5CC[C@H]4C2(C)C)ccc1O | inactive: -3.57% |
| CCOc1ccccc1NC(=O)Cn1c(=O)n(-c2ccc(C)c(C)c2)c(=O)c2c(C)c(C(=O)N(C)C)sc21 | inactive: -1.26% |
| CC(Nc1ncnc2c1cnn2-c1cccc(Cl)c1)c1ccccc1 (stereo unspecified) | inactive: 29.4% |
| COc1cccc(-c2nnc(SCC(=O)N3CCc4ccccc43)o2)c1 | inactive: -3.39% |
| Cc1cc2c(cc1C)NC(CC(=O)Nc1cccc(C)c1C)C(=O)N2 (stereo unspecified) | inactive: -6.63% |
| CCS(=O)(=O)c1c(S(=O)(=O)CC)c2cc(C(C)(C)C)ccn2c1C(=O)c1ccc(F)cc1 | inactive: -22.2% |
| O=C(NCc1ccc(Cl)cc1)C(=O)NCC(c1cccnc1)N1CCN(c2ccccc2)CC1 (stereo unspecified) | inactive: -57.1% |
| COC(=O)c1sc2cccc(F)c2c1S(=O)(=O)NCc1ccc(F)cc1 | inactive: 3.62% |
| COc1ccc(C2CC(=O)N(Cc3cccc(C)c3)c3c2c(C)nn3-c2nc(C)cc(C)n2)c(OC)c1 (stereo unspecified) | inactive: -19.1% |
| Cc1ccccc1-n1c(=O)c2ccccc2n(Cc2ccc(F)cc2)c1=O | inactive: -25.8% |
| CCOC(=O)c1cnc2c(Cl)c(Cl)ccc2c1Nc1ccc(N(C)C)cc1 | inactive: -5.64% |
| COc1ccc(-n2c(=O)c3c4c(sc3n(Cc3c(F)cccc3Cl)c2=O)CN(C(C)=O)CC4)cc1OC | inactive: -9.94% |
| CCOC(=O)c1ccccc1NC(=O)CN(c1cc(C(F)(F)F)ccc1Cl)S(C)(=O)=O | inactive: -29.9% |
| CCCc1cc(C(N)=S)ccn1 | inactive |
| Cc1ccc(-c2noc(CN(C(=O)c3ccc(C(C)(C)C)cc3)C(C)C)n2)cc1 | inactive: -24.5% |
| COc1cccc(NC(=O)Cn2c(=O)c3cccn3c3ccc(F)cc32)c1 | inactive: -31% |
| O=S(=O)(c1ccccc1)n1nc(-c2ccc(Cl)cc2)nc1NCc1ccc(F)cc1 | inactive: -21.8% |
| CCCCSCCCNC(=O)c1cn(CC)c2ccc(S(=O)(=O)N(C)C3CCCCC3)cc2c1=O | inactive: -31.6% |
| COc1cccc(-c2nc(SCC(=O)NCc3ccccc3)c3c(=O)n(C)c(=O)n(C)c3n2)c1 | inactive: 3.33% |
| Cc1ccc(CCNC(=O)CCS(=O)(=O)c2ccc3c(c2)oc(=O)n3C)cc1 | inactive: 8.34% [at 11.5 µM, percent change from vehicle, -100% = no light] |

| SMILES | activity change, positive = activation |
| --- | --- |
| O=C(Cn1ccc2cc(S(=O)(=O)N3CCCCCC3)ccc21)NCCc1ccccc1Cl | inactive: -29.6% |
| COc1cccc(N2CCN(S(=O)(=O)c3ccc(-c4cc(C(F)(F)F)on4)s3)CC2)c1 | inactive: -8.39% |
| CCCOc1ccc(C(=O)Nc2cccc(NC(=O)c3ccc(Cl)cc3Cl)c2)cc1 | inactive: 5.01% [at 11.5 µM, percent change from vehicle, -100% = no light] |
| CC(=O)N1CCc2cc(CNS(=O)(=O)c3ccccc3C(F)(F)F)ccc21 | inactive: -2.42% |
| Cc1nn(CC(=O)NCc2ccco2)c(=O)c2nn(-c3ccccc3)c(C)c12 | inactive: 15.9% |
| CCOc1cccc(C2Oc3nc(SC)nnc3-c3ccccc3N2C(C)=O)c1OC (stereo unspecified) | inactive: 1.48% [at 11.5 µM, percent change from vehicle, -100% = no light] |
| Cc1cc(C)cc(NC(=O)Cn2c(C)cc(C)c(C#N)c2=O)c1 | inactive: -3.66% |
| O=C(CSc1nc2ccccc2n1Cc1cccc(C(F)(F)F)c1)NCc1ccccc1 | inactive: -17.5% |
| O=C(O)c1ccc(CSc2nc3cccnc3n2Cc2cccc(F)c2)cc1 | inactive: -8.98% |
| CC(=O)Nc1ccc(NC(=O)c2c(-c3ccccc3)noc2C)cc1 | inactive: -11.4% |
| Nc1ncc(S(=O)(=O)N2CCN(c3ccccc3)CC2)cn1 | inactive: -14.7% |
| COC(=O)CC1Oc2ccc(Cl)cc2-n2cc(-c3ccc(C)cc3)nc21 (stereo unspecified) | inactive: -16.3% |
| O=C(CSc1nc2c([nH]c3ccccc32)c(=O)n1-c1ccc(F)cc1)Nc1ccc2c(c1)OCO2 | inactive: -37.7% |
| Cc1ccc(S(=O)(=O)C(CNC(=O)C(=O)NCCc2ccc(F)cc2)c2cccs2)cc1 (stereo unspecified) | inactive: -40.1% |
| COc1cc(NC(=O)CSc2ccc(-c3sc(C)nc3C)nn2)cc(OC)c1 | inactive: -32.6% |
| COc1ccc(Cl)cc1NC(=O)c1oc2ccc(S(=O)(=O)N3CCCCC3)cc2c1C | inactive: 15.2% |
| COc1ccc(N2CCN(C(=O)c3ccc(CS(=O)c4cccc(C)c4)o3)CC2)cc1 (stereo unspecified) | inactive: -23.1% |
| CCN(c1ccc(C)cc1C)S(=O)(=O)c1nnc(NC(=O)c2ccc(F)cc2)s1 | inactive: -47.4% |
| CCN(Cc1ccccc1)C(=O)CN1C(=O)COc2ccc(S(=O)(=O)N3CCOCC3)cc21 | inactive: -4.24% |
| CC(C)CNc1ccnc(NCc2csc(-c3ccccc3)n2)n1 | inactive: -89.5% |
| Cc1ccc2oc(=O)c(-c3nc(-c4cccs4)no3)cc2c1 | inactive: 10.5% |
| Cc1nn(CCC(=O)Nc2cccc(C#N)c2)c(C)c1S(=O)(=O)N1CCC(C)CC1 | inactive: -25.4% |
| COc1ccc(-n2cnc3cc(C(=O)NCCC4=CCCCC4)ccc32)cc1 | inactive: -0.11% |

| SMILES | activity change, positive = activation |
| --- | --- |
| COC(=O)c1ccccc1NC(=O)Cc1nc(-c2ccc(OC)cc2)no1 | inactive: -24% |
| COc1cc2c(Nc3ccc(NC(=O)c4ccccc4)cc3)ncnc2cc1OCCCN1CCOCC1 | inactive: -15.5% |
| COc1ccc(OC)c(NC(=O)CN(c2ccccc2OC)S(=O)(=O)c2ccc(C)cc2)c1 | inactive: -32.3% |
| O=C(Nc1cccc(C(=O)OCc2cc(=O)n3ccsc3n2)c1)c1ccc(F)cc1 | inactive: 16% |
| Cc1csc2nc(COC(=O)c3ccc(NC(=O)c4ccccc4Br)cc3)cc(=O)n12 | inactive: -31.3% |
| CCOCCCNC(=O)CCC(=O)NNc1nc2ccccc2c2nc(C)nn12 | inactive: -6.38% |
| Cc1nc2nc(SCC(=O)NCCc3ccc(Cl)cc3)nn2c(C)c1Cc1c(F)cccc1Cl | inactive: -19.5% |
| Cc1ccc(NC(=O)C2CCCN2S(=O)(=O)c2ccc3c(c2)n(C)c(=O)c(=O)n3C)cc1 (stereo unspecified) | inactive: -6.11% |
| N#C/C(=C\c1ccc(-c2ccc(Br)cc2)o1)C(=O)Nc1ccccc1O | inactive: 0.497% |
| Cc1ccc(-n2ncc3c(N4CCN(Cc5ccccc5)CC4)ncnc32)cc1C | inactive: 0% |
| COc1cc2c(NC3CCN(C(C)C)CC3)nc(C3CCCCC3)nc2cc1OCCCN1CCCC1 | inactive: 3.95% |
| Cc1oc(-c2ccccc2F)nc1Cn1c(SCc2cccc(Cl)c2)nc2ccncc21 | inactive: -13.5% |
| CCOCCc1nn2c(=O)cc(COC(=O)c3ccccc3Br)nc2s1 | inactive: -6.1% |
| O=C(NCCc1csc(-c2ccc(C(F)(F)F)cc2)n1)c1ccccc1Cl | inactive: -30.8% |
| Cc1ccc(CNC(=O)C(=O)NCC(c2cccs2)S(=O)(=O)c2ccccc2)cc1 (stereo unspecified) | inactive: -15.8% |
| CCCn1c(=N)c(C(=O)NCc2ccccc2)cc2c(=O)n3cccc(C)c3nc21 | inactive: 5.29% |
| CC(Cc1cccc(C(F)(F)F)c1)NCCOC(=O)c1ccccc1 (stereo unspecified) | inactive: -5.89% |
| Oc1c(C(c2cccc(Cl)c2)N2CCOCC2)sc2nc(-c3ccco3)nn12 (stereo unspecified) | inactive: 1.63% |
| CCN1c2ccccc2-c2nc(SCC(=O)Nc3cc(C)c(Cl)cc3OC)ncc2S1(=O)=O | inactive: -15.5% |
| O=C(COc1ccc(F)cc1)NCc1ccc2c(c1)CCN2C(=O)c1ccc(F)cc1 | inactive: -10.9% |
| COc1ccc(CCNC(=O)c2c3c(nc4ccccc24)C(=O)N(C2CCCCC2)C3)cc1OC | inactive: -16.7% |
| O=C(Nc1ccc(F)c(Cl)c1)C1CCN(c2ncccn2)CC1 | inactive: -18.2% |
